Measurements from PubChem BioAssay AID463173 (ICCB-Longwood Screening Facility, Harvard Medical School, 2010).
About 4,300 (8.3%) of roughly 52,000 compounds were called active. Cut-off read from the data, not from the text of the source: active = survival mostly below about 52% (no sharp cut-off); inactive = mostly above about 56%. The list shows a part of the results.

system: DeltatarO mutant; test: S. aureus survival, RN4220 and DeltatarO strains – OD600, teichoic acid synthesis inhibitors, primary screen (AID 463173); settings: S. aureus RN4220 wild type/DeltatarO growth, OD600, 18 h, hits give low values, screened at 18.75 µg/mL (by protocol)

SMILES	survival
O=C(Oc1ccc2c(=O)c(Cl)coc2c1)c1cccnc1	inactive: 76%
Cc1ccccc1NC(=O)COc1ccc2oc3c(c2c1)CCCC3	inactive: 150%
CCOC(=O)N1CCC(NC(=O)c2cnn(-c3ccc(OC)cc3)c2C2CCN(C(=O)OC(C)(C)C)CC2)CC1	inactive: 84%
Cc1ccc(Cn2c(=O)c3cccnc3n(Cc3ccc(C)cc3)c2=O)cc1	inactive: 79%
COc1ccc(-c2cc3nc(C)c(CCC(=O)NCCc4ccc(Cl)cc4)c(C)n3n2)c(OC)c1	inactive: 78%
O=C(CN1C(=O)COc2ccc(S(=O)(=O)N3CCCCCC3)cc21)N1CCN(c2ccc(F)cc2)CC1	inactive: 67%
Cc1ccc(Cn2c(=O)n(-c3cccc(C(F)(F)F)c3)c(=O)c3c(C)c(C)sc32)c(C)c1	inactive: 97%
Cc1ccc(CSc2ncc(Cl)c(C(=O)Oc3ccccc3F)n2)cc1	inactive: 101%
Cc1cn(C)c(CC(=O)Nc2cccc(C#N)c2)c1C(=O)O	inactive: 95%
COc1ccc(N2CCN(c3nc4ccc(C(=O)c5ccccc5)cc4n4cnnc34)CC2)cc1	inactive: 77%
Cc1cccc2c1-c1sc(C(=O)NCCCN3CCN(c4ccccc4F)CC3)cc1CO2	inactive: 63%
CCOc1ccc(CN2CCN(Cc3ccc4c(c3)c3ccccc3n4CC)CC2)cc1	active: 0%
O=C(CCn1c(=O)c2ccccc2n(Cc2cccc(F)c2)c1=O)NCc1ccc2c(c1)OCO2	inactive: 99%
Cc1ccc(-c2c(C(=O)N3CCN(c4ccc(F)cc4)CC3)oc(=O)c3ccccc23)cc1	inactive: 103%
COc1cc(OC)c(OC)cc1CN1CCc2nc(N3CCN(C)CC3)ncc2C1	inactive: 84%
Cc1cc(C)cc(N2C(=O)N(Cc3cc(=O)n4ccccc4n3)c3ccccc3S2(=O)=O)c1	inactive: 117%
CCOc1ccc(C(=O)/C=C/c2cn(CC(O)CN3CCc4ccccc43)c3ccccc23)cc1 (stereo unspecified)	inactive: 56%
CCOC(=O)C1=C(C)NC(=O)NC1c1c(O)ccc2ccccc12 (stereo unspecified)	inactive: 99%
CCc1nn(CC(=O)NCc2ccc(C)cc2)c(=O)c2cc3occc3n12	inactive: 105%
CC(C)Oc1ccc(CNC(=O)c2ccc3c(c2)nc2n3CCOC2)cc1	inactive: 83%
COc1cc(NC(=O)N2CCSc3ccccc32)cc(OC)c1OC	active: 52%
CCN(c1ccccc1C)S(=O)(=O)c1nnc(NC(=O)c2ccccc2C)s1	active: 15%
COc1ccc(NC(=O)Cc2c(C(=O)O)[nH]c3ccccc23)cc1OC	inactive: 76%

SMILES	survival
NC(=O)CSc1nnc2c(n1)CCCC2	inactive: 83%
O=C(CCS(=O)(=O)c1nc(-c2ccc3c(c2)OCO3)cc(C(F)(F)F)n1)Nc1ccc(Br)cc1	inactive: 94%
Cc1ccc(NC(=O)c2oc3ccc(S(=O)(=O)N4CCOCC4)cc3c2C)c(C)c1	inactive: 125%
COc1ccc(C(=O)Nc2ccc3nc4c(c(Nc5ccccc5OC)c3c2)CCCC4)c(OC)c1	active: 48%
COc1cc(C2c3c(oc4ccc(F)cc4c3=O)C(=O)N2Cc2ccc3c(c2)OCO3)ccc1O (stereo unspecified)	inactive: 101%
O=C1CC(c2c(F)cccc2Cl)c2c(ccc3ccccc23)N1 (stereo unspecified)	inactive: 72%
CCCCN(CC)C(=O)c1c[nH]c2ccc(S(=O)(=O)N(C)c3ccc(Cl)cc3)cc2c1=O	inactive: 95%
COC(=O)c1cccnc1-n1c(=O)c2cccnc2n(CC(=O)Nc2cccc(C)c2)c1=O	inactive: 149%
CCOC(=O)c1ccccc1NC(=O)CN1C(=O)CC(c2ccccc2)Sc2ccccc21 (stereo unspecified)	inactive: 92%
Fc1ccccc1N1CCN(c2ncnc3onc(-c4ccc(Cl)cc4)c23)CC1	active: 54%
COc1ccc(Cl)cc1NC(=O)CSc1nc2c(oc3ccccc32)c(=O)n1Cc1ccco1	inactive: 74%
Cc1ccc(C(=O)Nc2ccc(C(=O)O)cc2)cc1S(=O)(=O)N1CCC(C)CC1	inactive: 73%
Cc1cccc(-c2nc3scc(CCNS(=O)(=O)c4ccc(F)c(C(F)(F)F)c4)n3n2)c1	inactive: 83%
CCCCOc1ccc(C(=O)NCc2cn3cccc(C)c3n2)cc1	inactive: 85%
CCCCOc1ccc(C(=O)NCCc2sc3nc(-c4ccc(OC)cc4)nn3c2C)cc1	inactive: 91%
CCOc1cc2c(cc1OCC)C(CC(=O)O)N(C(=O)Nc1ccc(Br)c(C)c1)CC2 (stereo unspecified)	inactive: 81%
O=C(Nc1ccc(N2CCN(c3ccc(F)cc3)CC2)c(C(=O)O)c1)c1cccs1	inactive: 89%
Cc1ccc(NC(=O)/C=C/c2ccco2)cc1F	inactive: 99%
CCOc1ccc(N(C)C(=O)C2CCN(S(=O)(=O)c3c(C)noc3/C=C/c3ccc(C)cc3)CC2)cc1	inactive: 107%
CCN(CC)c1nn2c(=O)c(C(=O)NCCc3ccccc3C)cnc2s1	inactive: 117%
O=C(NCc1ccc(Cl)cc1)C1CCC(CNS(=O)(=O)c2ccccc2)CC1 (stereo unspecified)	inactive: 97%
Cc1cccc(CN2CCN(CC(=O)NCCc3ccc(Cl)cc3)C2=O)c1	inactive: 59%
CCCCNC(=O)c1c[nH]c2ccc(C)cc2c1=O	inactive: 89%

SMILES	survival
COc1ccc(CNC(=O)C2CC(O)CN2C(=O)Nc2ccccc2)cc1 (stereo unspecified)	inactive: 84%
Cc1nc2ccc(C(=O)N3CCN(Cc4ccccc4)CC3)cc2[nH]1	inactive: 104%
CCCCCSc1nnc2c(n1)[nH]c1c(C)cccc12	inactive: 79%
COCCn1c(SCC(=O)c2ccc(C)cc2)nc2cc(C(=O)NC3CCCC3)ccc2c1=O	inactive: 89%
FC(F)(F)c1cc(Nc2nc3ccccc3c3nncn23)ccc1Cl	inactive: 91%
Nc1nc2c3cccc4cccc(c(=O)n2n1)c43	inactive: 73%
O=C(NCCc1ccccc1)C1CCN(c2nc3ccccc3nc2C(F)(F)F)CC1	inactive: 102%
CCCNC(=O)c1cnn(-c2ccc(C)c(C)c2)c1C1CCN(C(=O)OC(C)(C)C)CC1	inactive: 90%
COc1ccc(NC(=O)c2ccco2)cc1NC(=O)c1ccc(C#N)cc1F	inactive: 116%
O=C(NCCNC1CCCC1)c1cccs1	inactive: 113%
Cc1c(C(=O)Nc2ccc(F)c(Cl)c2)sc2nc3n(c(=O)c12)CCC3	inactive: 58%
O=C(Cn1c(=O)c(CNc2ccccc2)cc2cc3c(cc21)OCCO3)Nc1ccccc1Cl	inactive: 131%
CC(C)(C)OC(=O)N1CCC(c2c(C(=O)NCCN3CCOCC3)cnn2-c2cccc(Cl)c2)CC1	inactive: 67%
O=C(C1CC1)N1CCc2cc(Br)cc(S(=O)(=O)Nc3ccc(F)c(F)c3)c21	inactive: 110%
CCCOc1ccc(C(=O)N2CCC(c3nc4ccccc4s3)CC2)cc1	active: 36%
CCc1ccc(/C=C(/C#N)c2nc(-c3ccc(C)cc3)cs2)cc1	active: 8%
Cc1cc(C)cc(N2CCn3c2nc2c3c(=O)n(Cc3c(F)cccc3Cl)c(=O)n2C)c1	inactive: 89%
Cc1cccc(NC(=O)CSc2nc3n[nH]c(C)c3c(=N)n2-c2cccc(Cl)c2)c1	inactive: 55%
Cc1cc(C)cc(C(=O)NCCc2sc(-c3ccc(F)cc3)nc2C)c1	inactive: 82%
N#Cc1ccc(NC(=O)COCc2cc(-c3ccco3)on2)cc1	inactive: 84%
CCOC(=O)C1CCN(CCC(=O)Nc2ccccc2OC)CC1	inactive: 74%
COc1ccc(OC)c(C2CC(=O)Nc3c2c(=O)[nH]c2nc4ccccc4n32)c1 (stereo unspecified)	inactive: 164%
COc1ccc(Cl)cc1N/C=C(/C#N)c1nc2ccccc2n1C	inactive: 82%

SMILES	survival
Cn1c(=O)c2c(nc(CN3CCN(c4ccccc4F)CC3)n2Cc2ccc(F)cc2)n(C)c1=O	inactive: 90%
CCOc1ccc(N(Cc2ccccc2)C(=O)c2nc(SC)ncc2Cl)cc1	inactive: 72%
O=c1c(S(=O)(=O)c2ccccc2)cn(Cc2ccccc2)c2cc(N3CCCC3)c(F)cc12	inactive: 69%
COc1ccc(Cl)cc1N(C(C)=O)c1nc(C)cc(C)c1C#N	inactive: 92%
Cc1nn(C)c2c1c(C(F)(F)F)cc(=O)n2Cc1ccc(Br)cc1F	inactive: 94%
COc1cc(N)c(Cc2nccc3cc(OC)c(OC)cc23)cc1OC	inactive: 94%
CCOc1ccccc1C(=O)NC1CCNCC1	inactive: 91%
Cc1cccc(N2CCN(Cc3cc(=O)oc4cc(C)ccc34)CC2C)c1 (stereo unspecified)	inactive: 77%
CC(C)c1ccc(CNc2nc(-c3ccco3)nn2S(=O)(=O)c2ccc(F)cc2)cc1	inactive: 77%
CCOC(=O)C1CCCN(S(=O)(=O)c2ccc(OC)cc2)C1 (stereo unspecified)	inactive: 76%
CCn1c(SCC(N)=O)nc2ccccc21	inactive: 79%
Cc1ccccc1N1CC(c2nnc(NC(=O)c3ccco3)s2)CC1=O (stereo unspecified)	inactive: 83%
CCn1c(C(NC(=O)c2ccc(C)cc2)C(C)C)n[nH]c1=S (stereo unspecified)	inactive: 80%
Cc1cc(C)cc(NC(=O)CN2CCC(NC(=O)Cc3ccccc3)CC2)c1	inactive: 106%
Cc1sc2nc3n(c(=O)c2c1C)NC(=O)CC3	inactive: 97%
Cc1cccc(NC(=O)N2CCC(N3CCN(Cc4ccccc4)C(=O)C3=O)CC2)c1C	inactive: 66%
CCCC1(C(=O)OC)NC(c2ccco2)C2C(=O)N(C)C(=O)C21 (stereo unspecified)	inactive: 104%
CCOC(=O)c1ccccc1NC(=O)c1cc2ccc3cccnc3c2[nH]1	inactive: 117%
Cc1oc2ncnc(N3CCOCC3)c2c1C(=O)NCCc1ccccc1	inactive: 89%
CCOC(=O)COc1ccc(C)cc1C(=O)c1ccn2nc(-c3ccc(Cl)cc3)cc2n1	inactive: 87%
CC(C)NC(=O)c1ccc2c(c1)nc1n2CCCCC1	inactive: 91%
O=C(c1cc(-c2ccc(F)cc2)on1)N1CCN(c2ccc(F)cc2)CC1	inactive: 67%
